Experimental data: article PMC6919601, “Identification of Plasmodium dipeptidyl aminopeptidase allosteric inhibitors by high throughput screening” (PLoS ONE, 2019)
Out of some 110,000 compounds screened, about 230 (0.21%) showed an effect of 50% or more. The list shows a part of the results.

Molecular target: DPAP1 (Plasmodium falciparum, UniProt Q8IIJ9)
Assay: primary screen, percent inhibition; read by cleavage of a fluorogenic dipeptide substrate; higher = more effect of the substance
Set-up: species or system P. falciparum D10 trophozoite lysates; single well
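Also: 30 min substrate incubation versus DMSO and 10 µM JCP410 controls.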

Sequence of DPAP1 (Q8IIJ9 whole entry, looked up): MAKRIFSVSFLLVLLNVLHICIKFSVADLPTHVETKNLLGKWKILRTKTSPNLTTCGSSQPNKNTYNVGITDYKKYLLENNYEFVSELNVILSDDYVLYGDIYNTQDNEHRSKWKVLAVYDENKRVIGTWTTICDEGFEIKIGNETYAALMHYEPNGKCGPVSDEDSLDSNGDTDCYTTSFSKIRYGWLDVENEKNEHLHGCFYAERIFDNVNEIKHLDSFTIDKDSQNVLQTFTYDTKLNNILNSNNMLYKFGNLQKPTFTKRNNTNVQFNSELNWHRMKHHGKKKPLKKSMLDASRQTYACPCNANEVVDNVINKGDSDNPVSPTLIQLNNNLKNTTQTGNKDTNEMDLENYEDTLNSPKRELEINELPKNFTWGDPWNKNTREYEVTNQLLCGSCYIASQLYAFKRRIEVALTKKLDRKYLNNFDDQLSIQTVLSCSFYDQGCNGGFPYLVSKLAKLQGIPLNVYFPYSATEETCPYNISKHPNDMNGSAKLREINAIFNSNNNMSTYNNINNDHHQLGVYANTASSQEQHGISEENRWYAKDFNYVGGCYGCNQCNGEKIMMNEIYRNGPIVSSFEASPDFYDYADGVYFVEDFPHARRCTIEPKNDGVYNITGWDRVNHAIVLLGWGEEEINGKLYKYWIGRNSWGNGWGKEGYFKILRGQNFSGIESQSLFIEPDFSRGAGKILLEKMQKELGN

| SMILES | % Inhibition @ 10 uM [%] |
| --- | --- |
| CCOC(=O)c1c(C)nc2c(c1-c1ccccc1)C(=O)CC(C)(C)C2 | 3.7 |
| CC1=C(C(=O)OCC2CCCO2)C(c2c(F)cccc2Cl)CC(=O)N1 (centres unmarked) | -3.51 |
| CC(C)C[C@H](NC(=O)OCc1ccc[n+](CC(N)=O)c1)C(=O)NCC#N | -0.778 |
| O=C(NCc1cccnc1)/C(=C\c1cccc(Oc2ccccc2)c1)S(=O)(=O)c1ccccc1 | 0.487 |
| COc1ccccc1-c1cc(-c2ccccc2)nc(SC)c1C#N | -0.736 |
| COCCCN1COc2ccc3c(C)cc(=O)oc3c2C1 | -3.36 |
| O=C1CCCN1CC12CC3CC(CC(C3)C1)C2 | -1.3 |
| COc1cccc(C2C=C(c3ccc(C)cc3)Nc3nnnn32)c1OC(F)F (centres unmarked) | 0.0842 |
| CNS(=O)(=O)c1cc(-c2nnc(N3CCOCC3)c3ccccc23)ccc1C | -1.1 |
| O=C(COc1ccc(Cl)cc1)NCc1nnc(SCC(=O)NCCc2ccccc2)o1 | 0.163 |
| COc1ccc(-c2csc(NC(=O)C3CCCCC3C(=O)O)n2)cc1 (centres unmarked) | -2.18 |
| Cc1ccsc1CN1CCN(c2cccc(Cl)c2)CC1 | -7.42 |
| CCOc1cc(NC(=O)c2ccccc2Cl)c(OCC)cc1N | 1.92 |
| CN1CCN(CCCNC(=O)CCCN2C(=O)CSc3ncccc32)CC1 | 4.22 |
| O=C1c2ccccc2C(Nc2cccnc2)N1Cc1ccccc1 (centres unmarked) | -1.08 |
| CCN(CC)C(=S)SCc1nc2ccccc2s1 | -3.92 |
| CCOC(=O)N1CCN(C(=O)CCc2ccc(S(=O)(=O)NC3CCCCC3)cc2)CC1 | 0.163 |
| CCn1c(C(=O)NC(C)c2ccccc2)cc2sc(Cl)cc21 (centres unmarked) | 1.89 |
| Cc1scc(CN2CCN(C(=O)c3ccco3)CC2)c1C | 0.124 |
| COCCNC(=O)CCCN1C(=O)C(c2ccccc2)Oc2cccnc21 (centres unmarked) | -2.1 |
| CCN(CC)CCNC(=O)c1cc2cc3ccc(C)cc3nc2s1 | 0.913 |
| C1CNC(C23CC4CC(CC(C4)C2)C3)=N1 | -0.828 |
| CC(=O)N[C@H]1[C@H](Oc2cccc3ccccc23)O[C@@H]2COC(C)(C)O[C@H]2[C@@H]1O | -3.46 |
| Cc1cc(C)c2c(-n3cccc3)c(C(=O)NC(C)c3ccc4c(c3)OCCO4)sc2n1 (centres unmarked) | 5.42 |
| CCOc1cc2c(cc1/C=C1/NC(=O)N(CC(=O)Nc3ccc(F)cc3)C1=O)OCO2 | -0.303 |
| c1ccc(CCN2CCN(c3ncnc4c3cnn4-c3ccccc3)CC2)cc1 | 1.07 |

| SMILES | % Inhibition @ 10 uM [%] |
| --- | --- |
| CCN1C(=O)C(F)(CC)C(=O)c2ccccc21 (centres unmarked) | 1.35 |
| CCSc1cc(N2CCOCC2)nc(-c2ccc(Cl)cc2)n1 | 0.361 |
| COc1cccc(C2CC(=O)NC(SCC(=O)Nc3ccccc3C)=C2C#N)c1OC (centres unmarked) | 2.44 |
| N#Cc1ccc(-c2ccccc2)nc1SCCN1CCOCC1 | -1.37 |
| Cc1cnc(C)c(N[C@H]2CCCCNC2=O)n1 | -1.2 |
| CC(C)Oc1ccc(C(=O)N(Cc2ccco2)Cc2ccccc2Cl)cc1 | -2.21 |
| CN(C(=O)Cn1nnc2sc3c(c2c1=O)CCC(C(C)(C)C)C3)C1CCCCC1 (centres unmarked) | 2.41 |
| CC(C)C[C@H](NC(=O)OCN1C(=O)c2ccccc2C1=O)C(=O)NCC#N | -3.04 |
| COc1ccccc1C(=O)N1CCN(c2ccccc2F)CC1 | -7.32 |
| O=C(Nc1ccc(Cl)cn1)c1ccccc1-c1ccccc1 | -1.28 |
| COc1ccc(CNC(=O)C2CCCN(S(=O)(=O)N3CCC(C)CC3)C2)c(OC)c1 (centres unmarked) | -1.34 |
| O=C(O)c1ccc(NC(=O)C2CC=CCC2C(=O)O)cc1O (centres unmarked) | -3.78 |
| O=c1c2ccccc2ncn1CCOCCSc1ccc(Cl)cc1 | 1.17 |
| CCOc1cc(Br)c(C(C)NC(=O)c2cccc(OC)c2)cc1OCC (centres unmarked) | 2.17 |
| CCOCC(=O)Nc1ccc(S(=O)(=O)Nc2nccs2)cc1 | 4.11 |
| Cn1c(=O)c2c(nc(Sc3ncnn3CC(=O)NC(C)(C)C)n2C)n(C)c1=O | 16.7 |
| C=Cc1ccc(Cn2c(C)c(CNCCc3ccc(OC)c(OC)c3OC)c(C(=O)O)c2C)cc1 | 8.86 |
| COc1cccc(OC)c1C(=O)Nc1ncccn1 | 6.57 |
| Cc1cccc(NC(=O)CN2C(=O)N/C(=C/c3ccc(-c4ccc(C(=O)O)cc4)o3)C2=O)c1 | 21.2 |
| NC(=O)c1cc(S(=O)(=O)N(Cc2ccco2)CC2CCCO2)cs1 (centres unmarked) | 0.359 |
| CCOC(=O)N1CCN(C(=O)c2ccc3nc(C)sc3c2)CC1 | -1.27 |
| CCc1ccc(CNC(=O)NCc2noc3ccc(C)cc23)cc1 | 2.19 |
| CCc1nnc(NC(=O)NCc2noc3ccccc23)s1 | 11.1 |
| CCOC(=O)C(O)(c1ccc(C)o1)C(F)(F)F (centres unmarked) | -0.239 |
| CCN(CCCNC(=O)C1CCN(C(=O)c2cc3sccc3n2C)CC1)Cc1ccccc1 | 0.137 |
| O=C(CC(Nc1cccc2c1-c1ccccc1C2)c1ccccc1)c1ccccc1 (centres unmarked) | 0.132 |

| SMILES | % Inhibition @ 10 uM [%] |
| --- | --- |
| COc1cc(/C=C2\S/C(=N/c3ccc(C(=O)O)cc3)N(C)C2=O)cc(OC)c1OC | 4.3 |
| Cc1ccc(O)c(NC(=O)CSc2ccc(Cl)cc2)c1 | 1.87 |
| O=C1c2ccc(Oc3ccc4c(c3)C(=O)N(CCCO)C4=O)cc2C(=O)N1CCCO | -2.16 |
| COc1cc2c(cc1OC)C(c1ccc(Cl)cc1)NC(=O)C2 (centres unmarked) | -4.03 |
| COc1cccc(N2CCN(C3CC(=O)N(c4cc(Cl)ccc4C)C3=O)CC2)c1 (centres unmarked) | -5.1 |
| CCc1nnc(NS(=O)(=O)c2ccc(NC(=S)NC(=O)/C=C/c3ccco3)cc2)s1 | 0.0345 |
| COc1cc(CNCc2cccnc2)cc(Br)c1OCC(N)=O | -0.0555 |
| CS(=O)(=O)N(CC(=O)NCc1ccc(Cl)cc1)c1cccc2ccccc12 | -3.38 |
| O=C(NCc1cccnc1)c1ccc(Br)cc1 | -2.22 |
| Cc1nn(Cc2ccccc2)c(C)c1NC(=O)c1cc(-c2ccc(O)cc2)on1 | -1.28 |
| CC1CCN(C(=O)Cn2cnc3c(nnn3-c3ccc(F)cc3)c2=O)CC1 | -2.16 |
| COc1cccc(C2Nc3cccc4cccc(c34)N2)c1OC | -0.305 |
| CCOc1ccc2c(=O)c(Oc3ccccc3CC)coc2c1 | -4.85 |
| CCOC(=O)c1cc(-c2ccc(C)cc2)n(CCC(=O)Nc2ncccc2C)c1C | 1.72 |
| O=C(O)c1cn(-c2ccccc2)nc1-c1ccccc1 | -0.128 |
| Cc1ccc(-c2c(C#N)c(N)nc3c2CCCCC3)c(C)c1 | -2.44 |
| Cc1scc(CN(Cc2ccccc2)C(C)C)c1C | -6.05 |
| CCS(=O)(=O)C1=NN2C(=N)/C(=C\c3ccc(OS(C)(=O)=O)c(Cl)c3)C(=O)N=C2S1 | 0.208 |
| COc1ccc(S(=O)(=O)NCCc2ccc(S(N)(=O)=O)cc2)cc1 | -6.81 |
| CCC(=O)Nc1sc2c(c1C#N)CC(C)(C)NC2(C)C | -0.941 |
| CCOc1ccccc1OCc1nn2c(Cc3ccccc3)nnc2s1 | 10.8 |
| N#CCc1nc2cc(C(=O)O)ccc2[nH]1 | -8.41 |
| COc1ccccc1C(=O)Nc1cc(C)cc(C)n1 | -1.42 |
| N#CCNC(=O)C(CC1CCN(c2nccs2)CC1)NC(=O)c1ccccc1 (centres unmarked) | -6.98 |
| CO/C(O)=C/C1=NC2CCCCC2NC1=O (centres unmarked) | 0.778 |
| CCCCNC(=O)C(CC)n1nc(C)c2sc3ccccc3c2c1=O (centres unmarked) | -2.61 |

| SMILES | % Inhibition @ 10 uM [%] |
| --- | --- |
| CC(C)(C)C1CCc2c(sc3nc(SCC(N)=O)nc(N)c23)C1 (centres unmarked) | -2.6 |
| Cc1noc(/C=C/N(C)C)c1S(=O)(=O)N1CCCC(C(=O)NCCC2=CCCCC2)C1 (centres unmarked) | 9.33 |
| COc1ccc(S(=O)(=O)Nc2ccc(C)cn2)cc1 | -5.48 |
| Cc1cc(NC(=O)C2CCCN2S(=O)(=O)c2cccc3nsnc23)no1 (centres unmarked) | -2.25 |
| CC(C)CS(=O)(=O)c1oc(-c2ccc(F)cc2)nc1S(=O)(=O)c1ccc(F)cc1 | 3.74 |
| COc1ccc(CN2CCCN(C)CC2)cc1OC | -0.261 |
| CCN1CCN(C(=O)c2cc(C)nn2-c2ccccc2)CC1 | -1.89 |
| O=C1c2cccnc2C(=O)N1Cc1ccc(S(=O)(=O)N2CCN(C3CCCCC3)CC2)s1 | -6.11 |
| Cc1s/c(=N\C(=O)c2ccco2)n(C)c1-c1ccccc1 | 0.108 |
| FC(F)Oc1cc(Cl)ccc1C1=CC(c2ccc(Cl)cc2)n2nnnc2N1 (centres unmarked) | -3.23 |
| CCN1CCN(C(=O)c2cc3c(C)nc4ccccc4c3o2)CC1 | 1.62 |
| CCN1CCN(CC(O)COc2ccc(Cl)cc2C)CC1 (centres unmarked) | -4.16 |
| CC(=O)c1cc2c(cc1NC(=O)C(C)Oc1ccccc1)OCO2 (centres unmarked) | -4.49 |
| O=S(=O)(c1ccccc1)c1cnc2ccccc2c1N1CCCCC1 | -0.246 |
| COC(=O)c1cccc2c1-c1ccccc1C2=O | 2.7 |
| Nc1cccc(NC(=O)c2ccccc2Br)c1 | 3.24 |
| CC1(C)CC(=O)C2=C(C1)N(c1ccc(Cl)cc1)C1=C(C2)C(=O)CC(C)(C)C1 | -3.93 |
| COc1ccc(N(CC(=O)Nc2ccccc2Cl)S(=O)(=O)c2ccc(C)cc2)cc1 | -1.95 |
| COc1ccc(C)cc1NC1CCC(c2ccccc2)CC1 (centres unmarked) | 7.8 |
| O=C(COc1ccc2ccccc2c1Br)NC1CCCCC1 | 4.83 |
| Cc1ccc(-c2csc(NC(=O)C3C4C=CC(O4)C3C(=O)O)n2)cc1 (centres unmarked) | 3.04 |
| COc1ccc(-c2nnc(S)n2-c2ccccc2C)cc1OC | 18.2 |
| CCn1c(C(=O)N2CCC(C(=O)NCCc3ccc(S(N)(=O)=O)cc3)CC2)cc2sccc21 | -3.35 |
